Experimental findings from PubChem BioAssay AID1259407 (Chemical Carcinogenesis Research Information System (CCRIS), 2018) are described below.

Entries after “also recorded” stand apart in the source; their conditions may differ. A number of entries come with more than one value. This is not the full list of results. An entry can have further records. How the calls were made is not given here. Values given together differ, and nothing given here explains why; some may be repeats, others may stem from another dose, organism or construct than stated. Brackets tell where a record comes from. Letters hold for one entry only. Signs of the kind (2×) give the number of equal values in this list.

This series deals with CCRIS mutagenicity, Ames/micronucleus/aberration tests. In words: CCRIS mutagenicity studies.
[1] abbreviates: Test System: AMES SALMONELLA TYPHIMURIUM, Strain/Indicator: TA100, Metabolic Activation: MOUSE, LIVER, S-9, AROCLOR 1254, Method: STANDARD PLATE.
The mark [2] stands for this setting: Test System: AMES SALMONELLA TYPHIMURIUM, Strain/Indicator: YG1024, Metabolic Activation: NONE, Method: PREINCUBATION
Setting [3] is: Test System: AMES SALMONELLA TYPHIMURIUM, Strain/Indicator: YG1029, Metabolic Activation: NONE, Method: PREINCUBATION
[4] abbreviates: Test System: MOUSE LYMPHOMA, Strain/Indicator: L5178Y (TK+/TK-), Metabolic Activation: NONE, Method: SUSPENSION/PLATE.
The mark [5] stands for this setting: End Point: IN VITRO CHROMOSOMAL ABERRATIONS, Test System: CHL CELLS, Metabolic Activation: NONE.
Setting [6] is: Test System: AMES SALMONELLA TYPHIMURIUM, Strain/Indicator: TA100, Metabolic Activation: RAT, LIVER, S-9, AROCLOR 1254, Method: STANDARD PLATE.
The mark [7] stands for this setting: Test System: AMES SALMONELLA TYPHIMURIUM, Strain/Indicator: TA98, Metabolic Activation: NONE, Method: PREINCUBATION
[8] abbreviates: Test System: AMES SALMONELLA TYPHIMURIUM, Strain/Indicator: TA98, Metabolic Activation: NONE, Method: STANDARD PLATE.

Take `CN(C)c1ccc(C(=O)c2ccc(N(C)C)cc2)cc1`: the mutagenic call is, setting by setting: (Test System: AMES SALMONELLA TYPHIMURIUM, Strain/Indicator: TA98, Metabolic Activation: HAMSTER, LIVER, S-9, AROCLOR 1254, Method: STANDARD PLATE) “inactive; negative and active; positive”; (Test System: AMES SALMONELLA TYPHIMURIUM, Strain/Indicator: TA98, Metabolic Activation: RAT, LIVER, S-9, AROCLOR 1254, Method: STANDARD PLATE) “active; positive (2×) and inactive; negative”; under setting [1], “inactive; negative (2×) and active; positive”; (Test System: AMES SALMONELLA TYPHIMURIUM, Strain/Indicator: TA1537, Metabolic Activation: HAMSTER, LIVER, S-9, Method: STANDARD PLATE) “inactive; negative (2×) and active; positive”; (Test System: AMES SALMONELLA TYPHIMURIUM, Strain/Indicator: TA1538, Metabolic Activation: HAMSTER, LIVER, S-9, AROCLOR 1254, Method: STANDARD PLATE) “active; positive and inactive; negative”; (Test System: AMES SALMONELLA TYPHIMURIUM, Strain/Indicator: TA1538, Metabolic Activation: HAMSTER, LIVER, S-9, Method: STANDARD PLATE) “inactive; negative (2×) and active; positive”. In addition, the mutagenic call runs as follows: (Test System: AMES SALMONELLA TYPHIMURIUM, Strain/Indicator: TA1538, Metabolic Activation: MOUSE, LIVER, S-9, AROCLOR 1254, Method: STANDARD PLATE) “active; positive and inactive; negative (2×)”; (Test System: AMES SALMONELLA TYPHIMURIUM, Strain/Indicator: TA1538, Metabolic Activation: RAT, LIVER, S-9, AROCLOR 1254, Method: STANDARD PLATE) “active; positive and inactive; negative (2×)”.
Take `Nc1cc2nc3ccccc3nc2cc1N`: the mutagenic call runs as follows: under setting [2], “active; positive and inactive; negative”; under setting [3], “active; positive and inactive; negative”.
Turning to `Nc1ccc(NC(=O)c2ccc(N)cc2)cc1`, the mutagenic call (Test System: AMES SALMONELLA TYPHIMURIUM, Strain/Indicator: TA1537, Metabolic Activation: NONE, Method: PREINCUBATION) is “inactive; negative and active; positive”.
For `C=CC(=O)OC`, the mutagenic call reads like this: (Test System: CHINESE HAMSTER OVARY, Strain/Indicator: CHO-K1-BH4 (HGPRT), Metabolic Activation: NONE, Method: MONOLAYER) “active; positive and inactive; negative”; under setting [4], “active; positive [study A]; also recorded: active; positive. reevaluation of results: positive [study B]”.
For the compound `COc1ccccc1[N+](=O)[O-]`, the mutagenic call is “inactive; negative; also recorded: inactive; negative; precipitation occurred at 803.4 ug/ml” (End Point: IN VITRO CHROMOSOMAL ABERRATIONS, Test System: CHINESE HAMSTER OVARY CELLS, Metabolic Activation: NONE) and “inactive; negative; authors report equivocal results for ploidy changes at 0.4 mg/ml; also recorded: inactive; negative” under setting [5].
Regarding `O=c1[nH]cnc2c1ncn2[C@H]1CC[C@@H](CO)O1`, the mutagenic call is “active; positive [study A]; also recorded: active; positive. reevaluation of results: positive [study B]” under setting [4] and “active; positive [study A]; also recorded: active; positive. reevaluation of results: equivocal [study B]” (Test System: MOUSE LYMPHOMA, Strain/Indicator: L5178Y (TK+/TK-), Metabolic Activation: RAT, LIVER, S-9, AROCLOR 1254, Method: SUSPENSION/PLATE).
For the compound `COc1ccc(N)cc1`, the mutagenic call runs as follows: (Test System: AMES SALMONELLA TYPHIMURIUM, Strain/Indicator: TA100, Metabolic Activation: HAMSTER, LIVER, S-9, Method: STANDARD PLATE) “active; positive (2×) and inactive; negative”; under setting [1], “active; positive and inactive; negative”; (Test System: AMES SALMONELLA TYPHIMURIUM, Strain/Indicator: TA100, Metabolic Activation: MOUSE, LIVER, S-9, Method: STANDARD PLATE) “active; positive and inactive; negative”; under setting [6], “active; positive and inactive; negative (2×)”; (Test System: AMES SALMONELLA TYPHIMURIUM, Strain/Indicator: TA100, Metabolic Activation: RAT, LIVER, S-9, Method: STANDARD PLATE) “active; positive and inactive; negative”; (Test System: AMES SALMONELLA TYPHIMURIUM, Strain/Indicator: TA1537, Metabolic Activation: MOUSE, LIVER, S-9, Method: STANDARD PLATE) “inactive; negative (2×) and active; positive”. The mutagenic call was “inactive; negative and active; positive” (Test System: E.COLI, Strain/Indicator: WP2UVRA/PKM101, Metabolic Activation: NONE, Method: PREINCUBATION); “inactive; negative and active; positive” (Test System: E.COLI, Strain/Indicator: WP2UVRA, Metabolic Activation: RAT LIVER S-9, PHENOBARBITAL AND BETA-NAPHTHOFLAVONE, Method: PREINCUBATION).
Turning to `CCCCC(CC)COC(=O)c1ccc(N(C)N=O)cc1` (stereo not drawn), the mutagenic call under setting [4] is “inactive; negative (2×) [study A]; also recorded: inactive; negative. reevaluation of results: negative [study B]”.
With `C=CC(=O)OCCO`, the mutagenic call (End Point: In vitro chromosomal aberrations, Test System: Chinese hamster lung (CHL/IU) cells, Metabolic Activation: None) is “active; positive (structural changes). toxicity at 0.014 mg/ml; also recorded: active; positive (structural changes and ploidy). no dose-response relationship for ploi; also recorded: active; positive (structural changes and ploidy). toxicity at 0.014 mg/ml”; the mutagenic call (Test System: E. coli, Strain/Indicator: WP2uvrA/pKM101, Metabolic Activation: Rat, Liver, S9, Sodium phenobarbital and 5,6-benzoflavone (10%), Method: Preincubation) is listed as “active; positive; also recorded: active; positive (results of two experimental tests)”.
Turning to `Nc1nc(NO)c2[nH]cnc2n1`, the mutagenic call is, setting by setting: under setting [7], “active; positive [study A] and inactive; negative [study B]”; (Test System: AMES SALMONELLA TYPHIMURIUM, Strain/Indicator: TA98, Metabolic Activation: RAT, LIVER, S-9, KANECHLOR 500, Method: PREINCUBATION) “active; positive [study A] and inactive; negative [study B]”.
For `ClCCCl`, the mutagenic call (Test System: Ames Salmonella typhimurium, Strain/Indicator: TA1535, Metabolic Activation: None, Method: Preincubation) was “inactive; negative and active; positive (2×)”.
As for `C1=C\CC/C=C\CC/1.Nc1ccccc1.[Cl-].[Rh]`, the mutagenic call runs as follows: (Test System: AMES SALMONELLA TYPHIMURIUM, Strain/Indicator: TA92, Metabolic Activation: NONE, Method: STANDARD PLATE) “active; positive and inactive; negative”; under setting [8], “active; positive and inactive; negative”; (Test System: AMES SALMONELLA TYPHIMURIUM, Strain/Indicator: TA100, Metabolic Activation: NONE, Method: STANDARD PLATE) “active; positive and inactive; negative”.
As to `ClC(Cl)Cl`, the mutagenic call reads like this: (Test System: AMES SALMONELLA TYPHIMURIUM, Strain/Indicator: TA1535 (GST+), Metabolic Activation: NONE, Method: STANDARD PLATE) “active; positive and inactive; negative”; (Test System: AMES SALMONELLA TYPHIMURIUM, Strain/Indicator: TA1535, Metabolic Activation: NONE, Method: STANDARD PLATE) “inactive; negative [study A] and active; positive [study B]”.
For `CN(C)/N=N/c1nc[nH]c1C(N)=O`, the mutagenic call is, setting by setting: under setting [7], “inactive; negative [study A] and active; positive [study B]”; (Test System: AMES SALMONELLA TYPHIMURIUM, Strain/Indicator: TA100, Metabolic Activation: NONE, Method: PREINCUBATION) “inactive; negative [study A] and active; positive [study B]”.
For the compound `C[Si](C)(Cl)Cl`, under setting [4], the mutagenic call was “inactive; negative [study A]; also recorded: inactive; negative. reealuation of results: negative [study B]”.
On to `Nc1cccc(N)c1`, for which the mutagenic call was “active; positive (structural changes); also recorded: inactive; negative; authors describe the results at the highest dose as equivocal” (End Point: IN VITRO CHROMOSOMAL ABERRATIONS, Test System: CHINESE HAMSTER LUNG CELLS (CHL), Metabolic Activation: NONE); “inactive; negative [study A] and inactive; negative [study B] and active; positive [study C]” under setting [8]; “inactive; negative [study A] and active; positive [study B]” under setting [6].
For `CCCl`, the mutagenic call (Test System: AMES SALMONELLA TYPHIMURIUM, Strain/Indicator: TA100, Metabolic Activation: RAT, LIVER, S-9, AROCLOR 1254 (30%), Method: DESICCATOR) was “active; positive and inactive; negative”.
Turning to `Nc1cc2nc3ccccc3nc2cc1O`, the mutagenic call was “active; positive and inactive; negative” under setting [2]; “active; positive and inactive; negative” under setting [3].
With `NCCS`, the mutagenic call (Test System: E. coli, Strain/Indicator: WP2uvrA/pKM101, Metabolic Activation: None, Method: Preincubation) is “inactive; negative and active; positive”.
Turning to `CC(Br)C(=O)O` (stereo not drawn), the mutagenic call under setting [5] was “active; positive (structural changes) (2×); also recorded: inactive; negative; authors report equivocal structural changes at highest dose”.
Regarding `CN1CCC[C@H]1c1cccnc1`, the mutagenic call (End Point: In vivo micronucleus, Test System: Bone marrow polychromatic erythrocytes, Species: Mouse, Strain/Sex: Swiss/Male, Route: Oral) is “inactive; negative and active; positive”.
